The text below walks through data of the supplement of paper PMC4967469.

IC50 is the fitted dose that halves viability relative to control wells, and lower means more sensitive; fits outside the tested doses are given as limits. AUC, from the same fit, is the share of area under the viability curve across the 256-fold dose range; the more sensitive the line, the further below 1. A value given as a limit tells only on which side of the number the result lay.

Compound in the assay: FC(F)c1nc2ccccc2n1-c1nc(N2CCOCC2)nc(N2CCOCC2)n1 [ZSTK474]
Briefly: Viability of human cancer cell lines after 72 h of drug (GDSC screen). The method, then: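 Human cancer cell lines in 384-well plates, medium with 10% serum, drug for 72 h over a 256-fold dose range (nine 2-fold or five 4-fold steps up to the top dose). Adherent lines were fixed and stained with the nucleic acid dye Syto60, suspension lines read with resazurin; signal relative to control wells, capped at 0 and 100%. One two-parameter sigmoid per drug and line, fitted in a mixed model over all curves with the slope shared within a line.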

In the case of “SUP-M2 (anaplastic large cell lymphoma, suspension, top dose 5.12 µM)”, the AUC was 0.444 and the IC50 turned out to be 0.233 µM.

Regarding “SUP-T1 (T-cell lymphoblastic leukaemia, suspension, top dose 5.12 µM)”, the AUC came out at 0.626 and the IC50 came to 0.687 µM.

In the case of “SW13 (adrenal gland, adherent, top dose 5.12 µM)”, the AUC worked out at 0.988 and the IC50 was greater than 5.12 µM.

As for “SW48 (large intestine, adherent, top dose 5.12 µM)”, the AUC was found to be 0.839 and the IC50 came out at 3.49 µM.

As to “SW156 (kidney, adherent, top dose 5.12 µM)”, the AUC is 0.79 and the IC50 came to 2.56 µM.

Consider “SW620 (large intestine, adherent, top dose 5.12 µM)”, for which the AUC turned out to be 0.8 and the IC50 amounted to 2.16 µM.

Regarding “SW626 (ovary, adherent, top dose 5.12 µM)”, the AUC was found to be 0.549 and the IC50 was 0.447 µM.

With “SW684 (fibrosarcoma, adherent, top dose 5.12 µM)”, the AUC came out at 0.959 and the IC50 was greater than 5.12 µM.

Take “SW756 (cervix, adherent, top dose 5.12 µM)”: the AUC was 0.983 and the IC50 was greater than 5.12 µM.

“SW780 (bladder, adherent, top dose 5.12 µM)”: the AUC amounted to 0.974 and the IC50 is greater than 5.12 µM.

Turning to “SW837 (large intestine, adherent, top dose 5.12 µM)”, the AUC turned out to be 0.71 and the IC50 worked out at 1.54 µM.

As for “SW872 (soft tissue, adherent, top dose 5.12 µM)”, the AUC was found to be 0.896 and the IC50 was greater than 5.12 µM.

As for “SW900 (lung squamous cell carcinoma, adherent, top dose 5.12 µM)”, the AUC amounted to 0.893 and the IC50 was greater than 5.12 µM.

For “SW948 (large intestine, adherent, top dose 5.12 µM)”, the AUC turned out to be 0.83 and the half-inhibitory concentration (IC50) is greater than 5.12 µM.

“SW954 (urogenital system, adherent, top dose 5.12 µM)”: the AUC was 0.554 and the IC50 was 0.451 µM.

Turning to “SW962 (urogenital system, adherent, top dose 5.12 µM)”, the AUC is 0.804 and the IC50 was 3.34 µM.

Turning to “SW982 (soft tissue, adherent, top dose 5.12 µM)”, the AUC was 0.985 and the IC50 was greater than 5.12 µM.

Regarding “SW1088 (glioma, adherent, top dose 5.12 µM)”, the AUC was determined as 0.817 and the 50% inhibitory concentration (IC50) was 4 µM.

For “SW1116 (large intestine, adherent, top dose 5.12 µM)”, the AUC turned out to be 0.963 and the IC50 is greater than 5.12 µM.

For “SW1271 (small cell lung carcinoma, adherent, top dose 5.12 µM)”, the AUC is 0.813 and the IC50 came to 3.29 µM.

For “SW1417 (large intestine, adherent, top dose 5.12 µM)”, the AUC is 0.919 and the IC50 was greater than 5.12 µM.

Regarding “SW1463 (large intestine, adherent, top dose 5.12 µM)”, the AUC worked out at 0.617 and the IC50 was 0.845 µM.

Turning to “SW1573 (lung adenocarcinoma, adherent, top dose 5.12 µM)”, the AUC was determined as 0.839 and the IC50 was greater than 5.12 µM.

On to “SW1710 (bladder, adherent, top dose 5.12 µM)”, for which the AUC was determined as 0.581 and the IC50 was 0.538 µM.

With “SW1783 (glioma, adherent, top dose 5.12 µM)”, the AUC turned out to be 0.976 and the IC50 was greater than 5.12 µM.

As to “SW1990 (pancreas, adherent, top dose 5.12 µM)”, the AUC amounted to 0.886 and the IC50 is greater than 5.12 µM.

For the cell line “Saos-2 (osteosarcoma, adherent, top dose 5.12 µM)”, the AUC is 0.956 and the IC50 was greater than 5.12 µM.

Turning to “SiHa (cervix, adherent, top dose 5.12 µM)”, the AUC worked out at 0.972 and the IC50 was greater than 5.12 µM.

Take “T47D (breast, adherent, top dose 5.12 µM)”: the AUC was 0.439 and the IC50 was 0.2 µM.

Regarding “T84 (large intestine, adherent, top dose 5.12 µM)”, the AUC came out at 0.817 and the 50% inhibitory concentration (IC50) is 2.92 µM.

Take “T98G (glioma, adherent, top dose 5.12 µM)”: the AUC stood at 0.907 and the IC50 was greater than 5.12 µM.

For “T-24 (bladder, adherent, top dose 5.12 µM)”, the AUC was found to be 0.92 and the IC50 is greater than 5.12 µM.

For the cell line “T-T (oesophagus, adherent, top dose 5.12 µM)”, the AUC was determined as 0.974 and the IC50 was greater than 5.12 µM.

With “TALL-1 (T-cell lymphoblastic leukaemia, suspension, top dose 5.12 µM)”, the AUC was found to be 0.949 and the IC50 was greater than 5.12 µM.

For the cell line “TC-71 (Ewing sarcoma, adherent, top dose 5.12 µM)”, the AUC came out at 0.709 and the half-maximal inhibitory concentration (IC50) is 1.1 µM.

Take “TCCSUP (bladder, adherent, top dose 5.12 µM)”: the AUC worked out at 0.931 and the IC50 is greater than 5.12 µM.

On to “TE-1 (oesophagus, adherent, top dose 5.12 µM)”, for which the AUC was determined as 0.845 and the IC50 was greater than 5.12 µM.

For “TE-4 (oesophagus, adherent, top dose 5.12 µM)”, the AUC was found to be 0.718 and the IC50 was 1.32 µM.

Regarding “TE-5 (oesophagus, adherent, top dose 5.12 µM)”, the AUC was determined as 0.812 and the IC50 stood at 3.28 µM.

As to “TE-6 (oesophagus, adherent, top dose 5.12 µM)”, the AUC came out at 0.803 and the IC50 is 3.07 µM.

Consider “TE-8 (oesophagus, adherent, top dose 5.12 µM)”, for which the AUC stood at 0.845 and the IC50 was 4.09 µM.

Turning to “TE-9 (oesophagus, adherent, top dose 5.12 µM)”, the AUC is 0.925 and the 50% inhibitory concentration (IC50) was greater than 5.12 µM.

As for “TE-10 (oesophagus, adherent, top dose 5.12 µM)”, the AUC stood at 0.889 and the IC50 was greater than 5.12 µM.

Take “TE-11 (oesophagus, adherent, top dose 5.12 µM)”: the AUC was 0.966 and the IC50 is greater than 5.12 µM.

Take “TE-12 (oesophagus, suspension, top dose 5.12 µM)”: the AUC amounted to 0.617 and the IC50 came to 0.724 µM.

With “TE-15 (oesophagus, suspension, top dose 5.12 µM)”, the AUC turned out to be 0.685 and the IC50 turned out to be 1.13 µM.

Take “TE-441-T (rhabdomyosarcoma, adherent, top dose 5.12 µM)”: the AUC is 0.858 and the IC50 was determined as 3.95 µM.

“TGBC1TKB (biliary tract, adherent, top dose 5.12 µM)”: the AUC was determined as 0.902 and the IC50 was greater than 5.12 µM.

Take “TGBC11TKB (stomach, adherent, top dose 5.12 µM)”: the AUC worked out at 0.983 and the IC50 is greater than 5.12 µM.

As for “TGBC24TKB (biliary tract, adherent, top dose 5.12 µM)”, the AUC was determined as 0.757 and the IC50 worked out at 1.66 µM.

Regarding “TGW (neuroblastoma, adherent, top dose 5.12 µM)”, the AUC came to 0.806 and the IC50 turned out to be 2.18 µM.

For “THP-1 (acute myeloid leukaemia, suspension, top dose 5.12 µM)”, the AUC amounted to 0.73 and the IC50 came to 1.34 µM.

For “TK10 (kidney, adherent, top dose 5.12 µM)”, the AUC turned out to be 0.636 and the IC50 was 0.824 µM.

In the case of “TK (B-cell lymphoma, suspension, top dose 5.12 µM)”, the AUC was found to be 0.554 and the IC50 stood at 0.443 µM.

With “TMK-1 (stomach, adherent, top dose 5.12 µM)”, the AUC was 0.923 and the IC50 is greater than 5.12 µM.

Consider “TOV-21G (ovary, adherent, top dose 5.12 µM)”, for which the AUC came to 0.822 and the IC50 was 3.33 µM.

Take “TOV-112D (ovary, adherent, top dose 5.12 µM)”: the AUC is 0.602 and the IC50 was 0.612 µM.

As for “TT2609-C02 (thyroid, adherent, top dose 5.12 µM)”, the AUC was 0.878 and the IC50 is greater than 5.12 µM.

With “TT (thyroid, adherent, top dose 5.12 µM)”, the AUC worked out at 0.903 and the concentration for half-maximal inhibition (IC50) was greater than 5.12 µM.

Consider “TUR (B-cell lymphoma, suspension, top dose 5.12 µM)”, for which the AUC came to 0.58 and the IC50 came to 0.522 µM.

For the cell line “TYK-nu (ovary, adherent, top dose 5.12 µM)”, the AUC was determined as 0.961 and the IC50 was greater than 5.12 µM.

On to “U031 (kidney, adherent, top dose 5.12 µM)”, for which the AUC came out at 0.658 and the IC50 was determined as 0.893 µM.

For the cell line “U251 (glioma, adherent, top dose 5.12 µM)”, the AUC was 0.902 and the half-maximal inhibitory concentration (IC50) is greater than 5.12 µM.

With “U-2-OS (osteosarcoma, adherent, top dose 5.12 µM)”, the AUC amounted to 0.896 and the IC50 is greater than 5.12 µM.

On to “U-118-MG (glioma, adherent, top dose 5.12 µM)”, for which the AUC is 0.978 and the 50% inhibitory concentration (IC50) is greater than 5.12 µM.

Turning to “U-698-M (B-cell leukaemia, suspension, top dose 5.12 µM)”, the AUC turned out to be 0.873 and the IC50 was 4.92 µM.

Consider “UACC-62 (melanoma, adherent, top dose 5.12 µM)”, for which the AUC is 0.873 and the IC50 was 4.84 µM.

One may read the IC50 as the concentration at which inhibition is half-maximal.
